Whole data set: some 33,000 sequences, median “E-score (-0.5 to 0.5)” near -0.035, cut for the highest 2% near 0.34. The list shows a part of the results.
molecular target: T1, Mot3 (UniProt P54785); assay: PBM E-score (8-mer binding enrichment) (E-score (-0.5 to 0.5)); higher = stronger / more preferred TF binding; most listed sequences are background and not binding sites; conditions: protein concentration: 200 nM; construct: GST-full length
T1 sequence: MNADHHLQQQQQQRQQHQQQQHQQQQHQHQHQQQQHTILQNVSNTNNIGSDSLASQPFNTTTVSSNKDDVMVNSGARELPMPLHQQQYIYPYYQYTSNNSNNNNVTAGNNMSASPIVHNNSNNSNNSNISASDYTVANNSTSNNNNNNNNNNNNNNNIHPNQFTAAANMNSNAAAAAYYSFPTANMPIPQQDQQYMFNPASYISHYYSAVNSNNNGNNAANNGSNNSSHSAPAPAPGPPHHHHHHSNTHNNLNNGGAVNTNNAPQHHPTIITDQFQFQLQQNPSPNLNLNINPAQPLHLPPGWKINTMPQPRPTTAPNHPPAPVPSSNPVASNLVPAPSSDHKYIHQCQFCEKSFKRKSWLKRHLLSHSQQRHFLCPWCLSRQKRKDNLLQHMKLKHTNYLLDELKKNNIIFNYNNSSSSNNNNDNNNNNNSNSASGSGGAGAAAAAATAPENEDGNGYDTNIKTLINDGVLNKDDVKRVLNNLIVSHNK
Summary of the method: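 Detection of bound protein used fluorescent anti-GST, with scans normalised by masliner. The proteins were GST-tagged yeast transcription factors applied at about 100-200 nM to universal all-10-mer Agilent arrays made double-stranded by primer extension. Each ungapped eight-base word, pooled with its reverse complement, was scored with an E-score from the Universal PBM Analysis Suite.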

Sequence	PBM E-score
CAGAGGTC	-0.225
CCCGATCC	-0.159
AATAGTTG	0.197
GCATTTAC	0.182
AAAACAAA	0.179
CGTCACGC	0.0486
GTGCCAAC	-0.0867
GGAGAACC	-0.135
AGGCGCGG	0.117
TAAACTTA	0.199
CTGTTTCA	0.0233
ATGGGAGA	-0.058
AAAATCGT	-0.0334
AGATCCAT	-0.295
CAGAGCGC	-0.053
CAATATCC	-0.271
CCGGCTCC	-0.449
AGTGCGGA	-0.22
AGGGCCAC	-0.252
CTGTCTCA	-0.258
ACGTAATG	0.348
AAACAGAT	0.139
AGCTTTGG	-0.161
GTTCGACA	0.191
GCGAAGCC	-0.194

Sequence	PBM E-score
CCGAAAAG	-0.0393
AGGGTCCC	0.0028
ATCCCTGA	-0.285
AATAATAA	0.183
TCACGCCA	0.00058
GTCCAAGA	-0.247
TAGTTGAA	-0.00318
TATAGGCA	0.482
AGACTCCA	-0.272
AAGTACCA	-0.00264
CAGCCGAG	-0.21
CCATTTCC	0.0138
AATTAAAT	0.124
CACGATAC	0.112
GCGTTTTA	0.11
GACTTCAC	-0.093
ATCCTTCA	0.0452
CATTGGGC	-0.124
GGCTTAAA	-0.0784
GCACTCAC	-0.129
GCGAGCGC	-0.131
GGTAAGGA	0.205
ATTGCTTG	0.0927
AAGCTGGT	-0.0363
TGAAGCCA	-0.0204

Sequence	PBM E-score
ATAACAGC	0.159
CCACGTTC	0.00954
CTCTCAAA	0.048
AAAACAAT	0.233
CGTCCACC	-0.302
TGGCAACA	0.118
CGGAGGAA	0.111
ATTGTATA	0.0976
AAGGGGGA	-0.182
AGGTCTTG	-0.187
CCTTAGGA	0.137
TATTTCAA	0.159
CAACAGGC	0.377
AATCCAGT	-0.102
CCTGGCGA	-0.186
ACCGTTTG	-0.121
AGGGGTCC	-0.176
AGGGCCCC	-0.164
TGAGCGCA	-0.208
CGCCCAGA	-0.045
TAGCTCAA	-0.0939
TACCGTCA	-0.144
AAAGTTGC	0.0627
GGATCCAA	-0.0546
AAGTATCG	0.12

Sequence	PBM E-score
CCGCTAAA	-0.13
CCCAGCCC	-0.278
ACCGGTGC	-0.167
AATAGTTC	-0.0328
AATAACTC	-0.0772
GCATTGCC	0.154
CGCGGAAG	-0.172
GGAACGTA	0.0776
AGCATGTG	0.179
TTGCACAA	0.144
CGATCATC	0.0732
AAGGCGGT	-0.0582
AGGCTAGG	-0.275
TACGCGAA	0.221
CATGATGA	0.0549
GACGTACC	0.0191
ACGCTAGG	0.00485
CTTTCGTA	0.0689
ATATATGA	0.011
CGGTCCAG	-0.194
AACAACGC	0.175
AGCCTAAT	0.185
AATATTAA	0.13
ACGTCAAA	0.253
CACCCTTA	-0.063

Sequence	PBM E-score
GTATGATA	0.175
GCCAGGCA	0.436
ATTTCCAC	0.0201
ATCCGTCC	-0.132
CGGGTACC	0.0123
GAAACTTC	-0.0215
CCCTTACC	-0.134
ACGAACCG	-0.085
AGTGCTGA	-0.215
ACGGCGGC	-0.0775
ATTAAAGG	0.312
AGCTCTTG	-0.0232
CTCTTCCC	-0.0605
CAGGAACC	0.46
AGCGTGAC	0.106
ATATCCAT	0.051
AGATCTAT	-0.0523
AATTGGTC	0.0243
CACGTCAA	0.0623
AACCACCT	-0.162
CGCTGGTA	-0.0902
AAGCTTGG	-0.244
ACGCCATG	0.09
AACTAGTC	-0.0317
ATACTGGG	-0.0397

Sequence	PBM E-score
AACGATCG	0.122
ACCCAAGT	-0.0543
AGGAGGAA	0.149
CCGGCCGG	-0.17
CAATACGC	0.214
CTGAACGC	-0.0478
AGAAGTCC	-0.227
CCCGGCAA	-0.125
GCCCTGCC	-0.149
AGGTGAGG	-0.317
TTCCTAAA	0.408
GCATCACC	-0.222
GGTGACAA	-0.12
CTACCGCA	-0.0463
AAGAGGTG	0.139
ATTAAGTC	0.138
CATAATCG	-0.148
CTGAAGTC	-0.0381
ACTCTAAA	0.00129
TCGGCGAA	-0.229
GCTTGCCA	-0.0267
AGCGCGCT	-0.198
ACTACTAG	0.0537
AGGTATTA	0.225
AGTCACCC	0.0464

Sequence	PBM E-score
CGTCGGTA	0.0636
GAATAAAA	0.0935
GCTTGATA	-0.0713
ACCAGCGC	-0.0467
AGGGCAGC	-0.0787
ATGCACAA	0.0919
AAACATGG	0.222
TCCTAAGA	-0.052
ATATGATG	-0.0645
GTTGTAAA	0.31
GGACTCTA	-0.204
ACGGCGAG	-0.168
ACCACGTG	0.07
ACGTGTAG	0.389
GCATCCCC	-0.275
GCATACAA	0.108
AACGGGAA	-0.03
AATGAAGT	-0.0462
TCAAATGA	-0.00184
ATATCGGG	-0.103
TATACTGA	0.095
ACAAAGTG	-0.0319
CTCATAGA	-0.101
ACGCGCGG	-0.081
ACAATCGA	-0.0299

Sequence	PBM E-score
ATTATTAA	0.0971
TGAAAAAA	0.128
CACGCCGG	-0.201
CGTTTGCC	0.103
AGATAATG	0.19
ATGAGGAC	-0.21
GCCATCGC	-0.25
AAGTGCAA	-0.0305
TGTGATAA	0.253
CAACCGGG	-0.0935
TCGCCCAA	-0.203
ATGAATAC	0.0773
TGATTCAA	0.122
CACATGGA	0.0921
AGATCGAA	-0.14
GGCTGAAA	-0.00504
CTCTCGCC	-0.162
GCGGGAAA	0.0709
GAATTACA	0.366
ATGTCGGA	-0.023
GTTTCTTA	0.0641
CCCATCGC	-0.16
AGTGGCCG	-0.346
CGTGACCC	-0.0451
CAGTGATC	-0.0773

Sequence	PBM E-score
CCATAATA	0.0795
CCCTGAGG	-0.0615
AGATAGTC	-0.0427
AAAAGGTT	0.0251
ATTCATCC	0.0274
CGTATTAG	0.205
TCTAGAGA	-0.194
CGGCCAAC	-0.155
ATCCCTAA	-0.204
AAAGCCGC	-0.119
GCAGCGGC	-0.323
GAGTGTGA	0.0249
GAGAAACA	0.199
CGGAGGGA	-0.312
CCGTTGCG	-0.0656
CACACGTA	0.208
CAATGAGA	-0.0142
ACGGTTAT	-0.0155
CCTTGGAG	-0.0105
ACCAGGTA	0.112
AAATTGGA	-0.0378
AACGATTG	0.139
AGGTAGTG	-0.0997
ACCGTCCT	-0.206
AAATGAAA	0.156

Sequence	PBM E-score
AGGCTTAA	0.0146
CGTCGGAA	0.0215
CGACTCGA	-0.00635
ACCCATCT	-0.0782
CCACTTGC	-0.157
CAAGAACA	0.166
GGTATGTA	0.343
ATCTCCGC	-0.251
GAGATGGA	-0.309
ACGAGGGA	-0.134
CGCAAAGC	-0.281
CTCCGAAA	-0.173
CTGAGACA	-0.0994
TTAAGCAA	0.116
AGTTTAAG	0.0984
CTCAGGAA	0.335
GATTAGGA	0.0102
GCCGGACA	-0.256
ACGTCGGG	-0.205
TAATTCTA	0.168
GCGCTCGA	-0.00313
CTCCTGGA	-0.172
CCGCGTTA	0.169
ATCCAGTG	-0.0645
AGGATTCC	-0.109

Sequence	PBM E-score
CTAGATGC	-0.0193
CCATCTCC	-0.26
GGCCGCCA	-0.209
AGCTCTTA	0.0235
AGCCCATA	-0.0979
GACTGTGA	-0.0263
ATAGGCAA	0.486
ACTCGCTC	-0.0329
ATGTTATA	0.318
AGGAACCT	0.458
AGCTTGGG	-0.236
GGTTTGCA	0.0583
CGACGAAG	-0.058
CTATAGAC	-0.0945
GTGTAGAA	0.364
CCCTAGCA	-0.0173
GCTCTGCC	-0.188
ACTACCTA	0.153
AACCATTG	0.147
ATCCTTGC	-0.0546
CAGAATGA	-0.0525
GAAATGAA	0.0736
CCAGAACC	0.0586
CCAAAGCA	-0.101
AATTACCC	-0.0825

Sequence	PBM E-score
CCTCTTAC	-0.0603
AATCTGAT	-0.0609
TGGCTCAA	-0.259
CATTGCGA	0.077
AGTTCCTG	0.403
CGTTCAAA	-0.112
CATTGAGA	-0.0927
GGATTCCC	-0.299
CAGCGTCA	-0.168
CCAGGTCA	-0.0989
AGCAAACA	0.0584
GGGTTAAC	0.197
ATTCCCCA	-0.04
GGTTATCA	-0.12
CTTCTGGC	-0.0901
AACTTTGT	0.112
CAGTAACC	-0.203
CACGGGCA	0.222
CCAGGCAA	0.477
CTGCACCA	-0.213
CCTAGTAC	0.162
TGCAACCA	-0.0159
GTGGTGAA	-0.189
CCTGGACA	-0.0055
ACGACGGG	-0.105

Sequence	PBM E-score
CTCATGCC	0.0205
AGCGAGAC	-0.281
CTTTTGTA	0.259
AGAGGTCA	-0.293
CGCCGTGA	-0.0448
CACGGGGC	-0.106
CGCCATGC	-0.112
ATATAATA	0.108
GGGTAACA	0.0919
CACGCGTC	0.123
CCCTTAAC	-0.0497
AGACCCTC	-0.278
ATCACTTC	-0.0779
GGACCTAA	-0.145
GGTGTGGA	-0.0515
CATTCACG	-0.103
CGTGGAAG	0.0258
CGCCTTAA	0.323
GGGGGACA	-0.115
CAATTTCA	-0.0623
AAAATACG	0.219
CGGTCTAG	-0.106
GGAGGGCA	0.0299
TACTGGAA	0.0214
GACTCTAC	-0.19

Sequence	PBM E-score
ATGGATGC	0.012
CAGTACTG	-0.132
ATTAACCG	0.094
ATCCAAAG	0.0763
CGCCGCCG	-0.168
AAGGGGGG	-0.367
ACTAGGGC	-0.0507
CAATCGTA	0.0685
GTCCTAAC	-0.0835
CACAGCGC	-0.0654
CCCCAACG	-0.0913
CGAGTAAC	0.0541
TTCGACAA	0.179
ACTTCCCC	-0.21
CTAGCACA	-0.168
ACGTGCAT	0.115
CAGCACAC	-0.0921
ACAACAAG	0.252
GTGTATCA	0.138
